# Results: the supplement of paper PMC12217912
# This is one part of the list. The full chains were built here from the parent and the listed change. Values near 0.05 are background.
# B1: TEV protease; numbered along this chain (parent)
# chain: MGESLFKGPRDYNPISSSICHLTNESDGHTTSLYGIGFGPFIITNKHLFRRNNGTLVVQSLHGVFKVKDTTTLQQHLVDGRDMIIIRMPKDFPPFPQKLKFREPQREERICLVTTNFQTKSMSSMVSDTSCTFPSGDGIFWKHWIQTKDGQCGSPLVSTRDGFIVGIHSASNFTNTNNYFTSVPKNFMELLTNQEAQQWVSGWRLNADSVLWGGHKVFMVKPEEPFQPVKEATQL
# Variants of: B1
# Assay: raw area under fraction-flipped curve 0-4 h after induction (AUC4h, not background-subtracted), DNA-recorder readout of cleavage of the substrate (dimensionless); higher = more cleavage of the substrate by the protease variant
# Conditions: temperature: 34 °C; time window: 0-4 h after rhamnose induction
# 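Also: Bxb1 expression induced with 0.2% (w/v) L-rhamnose at OD600 near 0.5, cultures sampled hourly, flipped fraction per protease–substrate barcode pair counted by paired-end Illumina sequencing.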
Variant,area with substrate ENLDFQS,area with substrate ENLEFQS,area with substrate ENLFFQS,area with substrate ENLHFQS,area with substrate ENLKFQS,area with substrate ENLLFQS,area with substrate ENLMFQS,area with substrate ENLNFQS,area with substrate ENLPFQS,area with substrate ENLWFQS,area with substrate ENLTFQS,area with substrate ENLGFQS,area with substrate ENLIFQS,area with substrate ENLQFQS,area with substrate ENLRFQS,area with substrate ENLSFQS,area with substrate ENLVFQS
S130D,0.075,0.0523,0.0666,0.0616,0.0725,0.0557,0.0885,0.0742,0.0954,0.0759,,,,,,,
E108M,0.0582,,,0.0662,0.0634,0.0679,,0.0688,0.0499,,0.0566,,,,,,
K148W,0.0653,0.0609,0.0812,0.0752,0.085,0.0623,,0.071,0.0667,0.0474,,0.0707,0.0713,0.0786,0.0559,0.0724,0.0797
V126E,,0.0689,0.0751,,0.0762,0.062,,,0.0638,0.067,,,0.0695,0.04,0.0522,,
L211P,0.0727,,0.0608,0.0522,,0.0671,,0.041,0.0574,0.064,,,,,,0.0676,
M125R,0.0576,0.0571,0.0988,0.0752,0.0825,,0.0793,0.0637,0.0686,,,0.0663,,0.0623,0.0467,0.0467,
M125S,0.0464,0.0674,0.0832,0.0807,,0.0737,,0.0704,0.0543,,,0.0683,,0.0762,,,
W141C,0.0718,0.0577,0.0646,0.0565,0.0653,0.0714,,0.0702,0.0607,0.036,,0.0414,0.0615,0.0687,,0.0737,
Q198E,0.0636,,0.0879,0.0673,0.0807,0.0702,,0.073,0.065,0.0716,0.0327,,0.0903,0.0638,0.0731,0.0612,0.0988
Q198D,0.0695,0.0654,0.0795,0.0676,0.0653,0.0774,,0.0699,,0.0638,,0.0602,0.0824,0.068,0.0725,0.0606,0.059
V200M,0.0637,0.0675,,0.038,0.0665,0.062,0.0604,0.0655,0.0805,,,0.0779,0.0675,,,,
L190R,0.0635,,0.0812,0.0641,0.0812,0.0836,0.0681,0.0643,,0.0462,,0.0417,0.0752,0.0617,,0.0813,0.0758
S124I,0.0596,0.0576,0.101,,0.0692,,,0.0611,0.0562,0.0171,,,0.0883,0.0794,0.0737,0.0613,0.0558
T114A,0.0496,0.1,0.0739,,0.0788,0.0629,,0.0639,0.062,,,,,0.0655,0.0726,,
E195M,0.0709,0.0695,0.0815,0.0688,,,,0.0548,,0.081,,,,,0.0821,0.0529,
V183N,0.064,,0.0887,,,,,0.0506,,0.0773,,0.0669,,0.0817,0.0613,0.0554,0.108
V183L,0.0704,,0.0723,0.0634,0.0615,,,0.0248,,,,0.108,0.0907,0.0495,0.0488,0.0472,

Variant,area with substrate ENLDFQS,area with substrate ENLEFQS,area with substrate ENLFFQS,area with substrate ENLHFQS,area with substrate ENLKFQS,area with substrate ENLLFQS,area with substrate ENLMFQS,area with substrate ENLNFQS,area with substrate ENLPFQS,area with substrate ENLWFQS,area with substrate ENLTFQS,area with substrate ENLGFQS,area with substrate ENLIFQS,area with substrate ENLQFQS,area with substrate ENLRFQS,area with substrate ENLSFQS,area with substrate ENLVFQS
M122A,0.0682,,0.0689,0.0682,0.0773,0.086,,0.0667,,0.0974,,,,0.067,,,0.0877
M122T,,0.0653,0.102,,,,,0.0716,0.0565,,0.0612,0.073,0.0729,,,0.0615,
G214Y,0.0656,,0.0647,,0.0509,,,0.075,0.0498,0.0615,,,,0.0523,,0.05,
N193G,0.0764,,0.0602,0.0466,,0.0605,,,,,,,,0.0789,,,
G213L,0.0599,,0.0538,0.0614,,,0.0643,0.0638,0.0587,0.0524,,0.0716,,,,0.0503,
P155V,0.0712,0.0647,0.0925,,0.0621,0.0842,,0.0329,0.0345,,,,0.0863,,0.0615,0.0637,0.0814
E231A,0.0578,0.0748,,0.0617,,,0.0548,0.0581,,0.0734,,0.0797,0.0883,0.0639,0.0731,0.0685,
F92E,0.0509,0.0528,0.0551,0.0595,0.0722,,,0.0612,0.058,0.0576,,,,,,0.061,
F92Y,0.0507,0.05,0.0798,0.0706,0.0734,,0.0542,,0.0404,,,,0.0845,0.0746,,0.07,
F117R,0.0562,,0.0861,0.081,0.0933,0.0619,,0.0621,0.051,,,,,,0.0978,0.053,
L156S,0.0583,,0.0682,0.0738,0.0665,,0.0465,0.0457,0.058,,,,,0.0548,,,0.0679
L77G,,0.0633,0.0512,,0.0611,0.0867,,,,,,0.0509,,,,0.0391,0.0531
G153P,0.059,0.0419,0.0686,,0.0459,0.0508,,0.0499,0.0535,0.0423,,,,0.0559,,0.0464,0.0398
T115F,0.0729,,0.0985,0.0635,0.0646,0.0657,,,0.046,0.0553,,0.0426,,0.0628,,0.0544,0.0852
T181P,0.0534,0.0566,,0.0524,0.073,0.0513,0.0606,,0.0568,0.0519,,,,0.0576,0.062,0.0678,0.164
Q118M,0.0666,0.0583,,0.0841,0.0985,,0.128,0.0469,,,,,,,,,0.0891
Q118V,0.053,,0.0753,0.0783,,0.0923,,0.0582,0.0712,,,,,0.0805,,0.0555,
